The subject of test [1] is A549-Dual. The test is described as follows: NF-kB reporter (SEAP) activity, viability-corrected, relative to vehicle (fold change vs vehicle); higher = more activation of STING-IRF / NF-kB immune response reporter.
For test [2], the system named is A549-Dual. In words: ISRE reporter (Lucia luciferase) activity, viability-corrected, relative to vehicle (fold change vs vehicle); higher = more activation of STING-IRF / NF-kB immune response reporter.

The list shows a part of the results. Single values of this set are uncertain. Values with irradiation are relative to irradiated vehicle.
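Wherever NF-kB reporter (SEAP) activity, viability-corrected, relative to vehicle is given: viability correction based on the alamar blue assay, with concentrations leaving 10% survival or less dropped.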

Consider `CC1(C(=O)O)CCC2(C)CCC3(C)C(=CC(=O)C4C5(C)CCC(OC6OC(C(=O)O)C(O)C(O)C6OC6OC(C(=O)O)C(O)C(O)C6O)C(C)(C)C5CCC43C)C2C1.N.N` (stereo not given) [Diammonium Glycyrrhizinate], for which the NF-kB reporter in the test with A549-Dual [1] (0.1 µM, irradiation: 8 Gy/4 fr) was 1.2; with A549-Dual [1] (0.1 µM, irradiation: none) it was 1.37; with A549-Dual [1] (0.3 µM, irradiation: 8 Gy/4 fr) it was 1.21; in the test with A549-Dual [1] (0.3 µM, irradiation: none) it was 1.64; in the test with A549-Dual [1] (1 µM, irradiation: 8 Gy/4 fr), 1.35; with A549-Dual [1] (1 µM, irradiation: none) it was 1.18. The NF-kB reporter came out at 1.35 in the test on A549-Dual [1] (3 µM, irradiation: 8 Gy/4 fr); 1.24 with A549-Dual [1] (3 µM, irradiation: none); 1.31 in the test on A549-Dual [1] (10 µM, irradiation: 8 Gy/4 fr); 1.11 in the test on A549-Dual [1] (10 µM, irradiation: none). Besides, the ISRE reporter in the test with A549-Dual [2] (0.1 µM, irradiation: 8 Gy/4 fr) is 0.992; in the test on A549-Dual [2] (0.1 µM, irradiation: none) it was 1.08; in the test on A549-Dual [2] (0.3 µM, irradiation: 8 Gy/4 fr), 0.924; with A549-Dual [2] (0.3 µM, irradiation: none), 1.06; in the test with A549-Dual [2] (1 µM, irradiation: 8 Gy/4 fr) it was 0.836; with A549-Dual [2] (1 µM, irradiation: none) it was 0.99. For the same compound, the ISRE reporter with A549-Dual [2] (3 µM, irradiation: 8 Gy/4 fr) was 0.884; with A549-Dual [2] (3 µM, irradiation: none) it was 1.01; in the test on A549-Dual [2] (10 µM, irradiation: 8 Gy/4 fr), 0.899; with A549-Dual [2] (10 µM, irradiation: none), 0.861.

For the compound `Cc1ccc(C(=O)c2ccc(CC(=O)O)n2C)cc1` [Tolmetin], the NF-kB reporter is 0.907 in the test with A549-Dual [1] (0.1 µM, irradiation: 8 Gy/4 fr); 0.676 with A549-Dual [1] (0.1 µM, irradiation: none); 0.674 in the test on A549-Dual [1] (0.3 µM, irradiation: 8 Gy/4 fr); 1.06 with A549-Dual [1] (0.3 µM, irradiation: none); 1.07 in the test with A549-Dual [1] (1 µM, irradiation: 8 Gy/4 fr); 0.564 in the test on A549-Dual [1] (1 µM, irradiation: none). Moreover, the NF-kB reporter in the test on A549-Dual [1] (3 µM, irradiation: 8 Gy/4 fr) worked out at 1.34; in the test on A549-Dual [1] (3 µM, irradiation: none), 1.04; with A549-Dual [1] (10 µM, irradiation: 8 Gy/4 fr) it was 0.52; with A549-Dual [1] (10 µM, irradiation: none) it was 0.347. Moreover, the ISRE reporter with A549-Dual [2] (0.1 µM, irradiation: 8 Gy/4 fr) turned out to be 0.909; in the test with A549-Dual [2] (0.1 µM, irradiation: none), 0.665; with A549-Dual [2] (0.3 µM, irradiation: 8 Gy/4 fr), 0.91; with A549-Dual [2] (0.3 µM, irradiation: none) it was 1.03; in the test with A549-Dual [2] (1 µM, irradiation: 8 Gy/4 fr), 0.942; in the test with A549-Dual [2] (1 µM, irradiation: none), 0.546. The ISRE reporter in the test with A549-Dual [2] (3 µM, irradiation: 8 Gy/4 fr) was determined as 0.807; in the test with A549-Dual [2] (3 µM, irradiation: none), 1.04; in the test on A549-Dual [2] (10 µM, irradiation: 8 Gy/4 fr), 0.606; in the test with A549-Dual [2] (10 µM, irradiation: none), 0.631.

Regarding `CC(C(=O)O)c1ccc(-c2ccccc2)c(F)c1` (stereo not given) [Flurbiprofen], the NF-kB reporter in the test on A549-Dual [1] (0.1 µM, irradiation: 8 Gy/4 fr) was 0.744; in the test on A549-Dual [1] (0.1 µM, irradiation: none) it was 0.633; with A549-Dual [1] (0.3 µM, irradiation: 8 Gy/4 fr), 0.736; in the test on A549-Dual [1] (0.3 µM, irradiation: none), 0.72; with A549-Dual [1] (1 µM, irradiation: 8 Gy/4 fr), 0.772; in the test with A549-Dual [1] (1 µM, irradiation: none), 0.599. Besides, the NF-kB reporter was 0.622 with A549-Dual [1] (3 µM, irradiation: 8 Gy/4 fr); 0.596 with A549-Dual [1] (3 µM, irradiation: none); 0.622 in the test with A549-Dual [1] (10 µM, irradiation: 8 Gy/4 fr); 0.858 with A549-Dual [1] (10 µM, irradiation: none). For the same compound, the ISRE reporter with A549-Dual [2] (0.1 µM, irradiation: 8 Gy/4 fr) stood at 0.907; with A549-Dual [2] (0.1 µM, irradiation: none), 0.776; in the test on A549-Dual [2] (0.3 µM, irradiation: 8 Gy/4 fr), 0.737; with A549-Dual [2] (0.3 µM, irradiation: none), 0.924; with A549-Dual [2] (1 µM, irradiation: 8 Gy/4 fr) it was 0.721; in the test on A549-Dual [2] (1 µM, irradiation: none), 0.832. Also, the ISRE reporter is 0.732 in the test on A549-Dual [2] (3 µM, irradiation: 8 Gy/4 fr); 0.942 in the test on A549-Dual [2] (3 µM, irradiation: none); 0.738 in the test on A549-Dual [2] (10 µM, irradiation: 8 Gy/4 fr); 0.792 with A549-Dual [2] (10 µM, irradiation: none).

`O=C(CCCCCCC(=O)Nc1ccccc1)NO` [Vorinostat (SAHA, MK0683)]: the NF-kB reporter in the test on A549-Dual [1] (0.1 µM, irradiation: 8 Gy/4 fr) was 0.961; in the test on A549-Dual [1] (0.1 µM, irradiation: none) it was 1.15; in the test with A549-Dual [1] (0.3 µM, irradiation: 8 Gy/4 fr) it was 0.953; with A549-Dual [1] (0.3 µM, irradiation: none) it was 1.36; in the test on A549-Dual [1] (1 µM, irradiation: 8 Gy/4 fr), 0.732; with A549-Dual [1] (1 µM, irradiation: none), 1.78. Further, the NF-kB reporter in the test on A549-Dual [1] (3 µM, irradiation: 8 Gy/4 fr) worked out at 1.2; with A549-Dual [1] (3 µM, irradiation: none), 1.18; in the test on A549-Dual [1] (10 µM, irradiation: 8 Gy/4 fr), 1.62; with A549-Dual [1] (10 µM, irradiation: none) it was 2.2. Moreover, the ISRE reporter in the test on A549-Dual [2] (0.1 µM, irradiation: 8 Gy/4 fr) was determined as 1.02; in the test on A549-Dual [2] (0.1 µM, irradiation: none), 1.48; in the test on A549-Dual [2] (0.3 µM, irradiation: 8 Gy/4 fr) it was 1.07; with A549-Dual [2] (0.3 µM, irradiation: none), 1.83; with A549-Dual [2] (1 µM, irradiation: 8 Gy/4 fr), 0.521; with A549-Dual [2] (1 µM, irradiation: none), 1.63. Besides, the ISRE reporter in the test with A549-Dual [2] (3 µM, irradiation: 8 Gy/4 fr) turned out to be 0.105; with A549-Dual [2] (3 µM, irradiation: none), 0.495; in the test on A549-Dual [2] (10 µM, irradiation: 8 Gy/4 fr) it was 0.0933; in the test with A549-Dual [2] (10 µM, irradiation: none), 0.661.

On to `CC12C=CC(=O)C=C1CCC1C3CC(O)C(O)(C(=O)CO)C3(C)CC(O)C12F` (stereo not given) [Triamcinolone], for which the NF-kB reporter in the test with A549-Dual [1] (0.1 µM, irradiation: 8 Gy/4 fr) stood at 0.679; with A549-Dual [1] (0.1 µM, irradiation: none), 1.04; with A549-Dual [1] (0.3 µM, irradiation: 8 Gy/4 fr), 0.846; with A549-Dual [1] (0.3 µM, irradiation: none), 1.27; in the test on A549-Dual [1] (1 µM, irradiation: 8 Gy/4 fr) it was 0.975; with A549-Dual [1] (1 µM, irradiation: none) it was 0.847. The NF-kB reporter in the test with A549-Dual [1] (3 µM, irradiation: 8 Gy/4 fr) was determined as 1.14; in the test with A549-Dual [1] (3 µM, irradiation: none), 0.791; in the test on A549-Dual [1] (10 µM, irradiation: 8 Gy/4 fr), 1.02; in the test with A549-Dual [1] (10 µM, irradiation: none), 0.752. Also, the ISRE reporter amounted to 0.114 in the test with A549-Dual [2] (0.1 µM, irradiation: 8 Gy/4 fr); 0.316 in the test on A549-Dual [2] (0.1 µM, irradiation: none); 0.18 with A549-Dual [2] (0.3 µM, irradiation: 8 Gy/4 fr); 0.337 in the test on A549-Dual [2] (0.3 µM, irradiation: none); 0.0587 in the test with A549-Dual [2] (1 µM, irradiation: 8 Gy/4 fr); 0.326 with A549-Dual [2] (1 µM, irradiation: none). The ISRE reporter amounted to 0.0547 in the test on A549-Dual [2] (3 µM, irradiation: 8 Gy/4 fr); 0.297 with A549-Dual [2] (3 µM, irradiation: none); 0.0583 in the test on A549-Dual [2] (10 µM, irradiation: 8 Gy/4 fr); 0.252 in the test with A549-Dual [2] (10 µM, irradiation: none).

Consider `CN(C)CCCOc1nn(Cc2ccccc2)c2ccccc12.Cl` [Benzydamine HCl], for which the NF-kB reporter with A549-Dual [1] (0.1 µM, irradiation: 8 Gy/4 fr) turned out to be 1.34; in the test on A549-Dual [1] (0.1 µM, irradiation: none) it was 0.95; in the test on A549-Dual [1] (0.3 µM, irradiation: 8 Gy/4 fr), 1.1; with A549-Dual [1] (0.3 µM, irradiation: none), 0.651; in the test with A549-Dual [1] (1 µM, irradiation: 8 Gy/4 fr) it was 1.29; in the test with A549-Dual [1] (1 µM, irradiation: none), 1.2. For the same compound, the NF-kB reporter in the test with A549-Dual [1] (3 µM, irradiation: 8 Gy/4 fr) is 1.13; in the test with A549-Dual [1] (3 µM, irradiation: none), 0.842; in the test with A549-Dual [1] (10 µM, irradiation: 8 Gy/4 fr), 0.968; in the test with A549-Dual [1] (10 µM, irradiation: none), 0.866. The ISRE reporter was 1.06 in the test on A549-Dual [2] (0.1 µM, irradiation: 8 Gy/4 fr); 0.701 with A549-Dual [2] (0.1 µM, irradiation: none); 0.96 in the test with A549-Dual [2] (0.3 µM, irradiation: 8 Gy/4 fr); 0.632 with A549-Dual [2] (0.3 µM, irradiation: none); 0.758 in the test with A549-Dual [2] (1 µM, irradiation: 8 Gy/4 fr); 0.916 with A549-Dual [2] (1 µM, irradiation: none). The ISRE reporter with A549-Dual [2] (3 µM, irradiation: 8 Gy/4 fr) came out at 0.857; with A549-Dual [2] (3 µM, irradiation: none), 0.963; in the test on A549-Dual [2] (10 µM, irradiation: 8 Gy/4 fr) it was 0.965; with A549-Dual [2] (10 µM, irradiation: none), 1.25.

(Values after the supplement of paper PMC9174493.)
